The source gives no read counts; variants with many changes may rest on few reads.
B1: CPEB3 Ribozyme (parent)
chain: UAACAGGGGGCCACAGCAGAAGCGUUCACGUCGCAGCCCCUGUCAGAUUCUGGUGAAUCUGCGAAUUCUGCUGUAUAUCUC

Variants of: B1
Assay: self-cleavage, relative activity (ratio to wild type); higher = more cleavage; in vitro, sequencing
Outline: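 Barcoded CPEB3 ribozyme mutants, produced by rounds of error-prone PCR, self-cleaved while being transcribed with T7 RNA polymerase for 5 hours at 37°C and during a subsequent 15 min DNase I step before EDTA was added. Sequencing of template-switched cDNA on Illumina gave cleaved and total reads, and DNA sequencing assigned barcodes to variants. Each variant's relative activity is its cleaved/total read fraction divided by the unmutated ribozyme's fraction, averaged across three batches. A variant needed a minimum of 5 reads.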
Work on C29G A45G C68A yielded a self-cleavage of 0.17.
C29U A35U U54C showed a self-cleavage of 0.2.
With A28G U48C A64G the self-cleavage was 0.
Variant C27A U31C A35U U51A has a self-cleavage of 0.13.
For C29U A47G U66C, the self-cleavage was 0.14.
In the case of G30A U41C A47G U72A, the self-cleavage is reported as 0.07.
With A28G C50A A56C the self-cleavage was 0.55.
Work on A28G U43C U76C yielded a self-cleavage of 0.33.
With C29U C40U U60C the self-cleavage was 0.19.
U26G U41A U67A U76C showed a self-cleavage of 0.14.
A28U A45U U48A A56G U60C G70C U72C showed a self-cleavage of 0.02.
A28G A56U A64G showed a self-cleavage of 0.16.
With A28C U31C A57G the self-cleavage was 0.36.
G30A A45U U54C showed a self-cleavage of 0.11.
C29U C34U U43C U48C gave a self-cleavage of 0.15.
Variant A28G U41C A45U A64U U67C has a self-cleavage of 0.11.
C27A A65G U72C showed a self-cleavage of 0.12.
For A28G C34A A35G U41A U49A U72A, the self-cleavage was 0.07.
Variant U26C U74C A75G has a self-cleavage of 0.81.
In the case of A28G C71G U76C, the self-cleavage is reported as 0.11.
With A28G C29U U80C the self-cleavage was 0.53.
Variant A28G A47G U80A has a self-cleavage of 0.94.
A28U A35G U54G gave a self-cleavage of 1.21.
For A28C A56U U66A A77G, the self-cleavage was 0.33.
With A28G U31C A45U A56C the self-cleavage was 0.17.
For C29A U58A U60A A64C U78A, the self-cleavage was 0.14.
With A28G U43A U80C the self-cleavage was 1.02.
A28G U41C A75G showed a self-cleavage of 0.43.
Variant C27A U31A U43C U54A has a self-cleavage of 0.22.
Work on A28G U60A A64U yielded a self-cleavage of 0.11.
Variant C27G U60C A64G U69C has a self-cleavage of 0.11.
A28U C38A U43C U51A G61A showed a self-cleavage of 0.12.
Work on A28U U51A U54A yielded a self-cleavage of 0.95.
With U26G G46U U48A U67C U76G the self-cleavage was 0.18.
Variant A28C C40A C59A has a self-cleavage of 0.12.
With A28U A64G U80C the self-cleavage was 0.85.
For A28G A64U U80C, the self-cleavage was 0.27.
C29U C50A U60C gave a self-cleavage of 0.09.
U26G A64G U78A gave a self-cleavage of 0.18.
C29U G53C A64G U72C U76A showed a self-cleavage of 0.44.
Variant A28C A56U A57G has a self-cleavage of 0.11.
A28C C50A U51A G63A gave a self-cleavage of 0.17.
Variant A28G U41C U80A has a self-cleavage of 0.87.
In the case of A28G U60A U78C, the self-cleavage is reported as 0.13.
In the case of A28U U41C U69A, the self-cleavage is reported as 0.23.
C29U U31C U43C C50A A75G showed a self-cleavage of 0.04.
G30A U69C A77G U80A gave a self-cleavage of 0.36.
In the case of A28G U67C U72C, the self-cleavage is reported as 0.18.
For A28G C40U A64U, the self-cleavage was 0.12.
Variant A28G A35G U67C A77U has a self-cleavage of 0.16.
Work on C27A U49C A57U U58C U67C yielded a self-cleavage of 0.11.
With A28G U31C U69C the self-cleavage was 0.14.
Variant A28U A35U U51A A57G U72A has a self-cleavage of 0.09.
Work on A28G A56G U78C yielded a self-cleavage of 0.31.
With A28U U31C G42U U48C A56G U69C U80A the self-cleavage was 0.05.
With A28U G33A U49C A56C U60C A64G the self-cleavage was 0.07.
Work on A28C C29A U51A U58A yielded a self-cleavage of 0.09.
For C27U U41C A75U U76C, the self-cleavage was 0.27.
Work on C27U A35U G53C U60C yielded a self-cleavage of 0.12.
A28G C39G U41C U51C showed a self-cleavage of 0.06.
With C29G C39G U41A U66C G70A the self-cleavage was 0.18.
Work on A28G C34U U67C U72C yielded a self-cleavage of 0.08.
Variant A28G A56G U76A has a self-cleavage of 0.37.
For A28U U66C U67C U72C U78G, the self-cleavage was 0.1.
With G30A U48C U60C U74C U78C the self-cleavage was 0.12.
A28G U43C U58C A77G showed a self-cleavage of 0.11.
C29U U31A A56U showed a self-cleavage of 0.18.
With C27U A35G U43A C71G U74C U80C the self-cleavage was 0.1.
C27U A28U A56G U60C showed a self-cleavage of 0.14.
In the case of G30A U67C C81U, the self-cleavage is reported as 0.08.
Work on A28U G30U A45G A56G U69C yielded a self-cleavage of 0.05.
With A28C C40U C81G the self-cleavage was 0.15.
In the case of A28C A35U U48C, the self-cleavage is reported as 0.43.
Work on A28U A35G U41C U76A yielded a self-cleavage of 1.19.
A28U U41C A47G U60C gave a self-cleavage of 0.21.
In the case of A28G A64U U72C, the self-cleavage is reported as 0.2.
A28G U51G G52C gave a self-cleavage of 0.62.
A28G A35C U74C gave a self-cleavage of 0.68.
Variant C29U U51C A57G A77U U78C U80C has a self-cleavage of 0.17.
Work on A28G U51C A56G yielded a self-cleavage of 0.48.
With C29A U41A A45U A47G U80C the self-cleavage was 0.11.
Work on A28G U43G U76C yielded a self-cleavage of 0.08.
Variant A28G G36C U43C A65G U78C has a self-cleavage of 0.07.
Work on A28C U51C A75U yielded a self-cleavage of 0.54.

From the RNAGym collection of RNA variant scans (doi:10.1093/nar/gkz1192)
